Reference: PubChem BioAssay (NCI)
Where “and” joins values, the source holds several entries; their conditions need not be identical. Equal values may be shown once.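 All cell lines were grown in 96-well plates and treated with compound for 48 hours. GI50 is the concentration that inhibits growth by half. The concentration for full growth arrest is given as TGI.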

Tested on: NCI-H322M lung
Assay: NCI-60 cell line screen, 48 h

Compound	TGI	GI50
COc1ccc(S(=O)Cc2cc(OC)ccc2OC)cc1 (stereo not given)	> 100 µM	–
Cc1ccc(NC(=S)NNC(=O)c2cc(-c3ccccc3)nc3ccccc23)cc1C	84.8 µM	–
Cn1c2ccccc2c2nnc(N/N=C/c3ccccn3)nc21	> 37.7 µM	0.332 µM
CC1C=C(NCC2(CO)CCC2)NC(N)=N1 (stereo not given)	> 100 µM	–
CN(C)CC#Cc1cccc(C(=O)c2cnn(-c3ccc(F)cc3)c2N)c1	> 25 µM	> 25 µM
COc1cc(-c2cc(-c3nc4ccccc4[nH]3)[nH]n2)cc(OC)c1OC	17.2 µM	2.85 µM
COC(=O)c1cc(C)ccc1CC(Cc1ccccc1C)C(=O)OC (stereo not given)	> 100 µM	–
COc1cc2c(OC)c(c1)CCCC1=CC(=O)C=C(CCC2)C1=O	> 100 µM	–
COc1ccc(/C=N/n2c(Cc3ccc(Cl)cc3)n[nH]c2=O)cc1	> 100 µM	–
Cc1cc2nc3c(C(O)CO)nn(-c4ccccc4)c3nc2cc1C (stereo not given)	44.5 µM	–
COc1ccc2nc(NC(=O)C(=O)CC(=O)c3ccc(Cl)cc3)sc2c1	> 100 µM	–
O=C(Nc1nccs1)c1cc(C2=CC=CC([N+](=O)[O-])C=C2)nc(=S)[nH]1 (stereo not given)	> 100 µM	–
Cc1nc(Nc2ccc(F)c(Cl)c2)sc1C(=O)O	9.71 µM	2.85 µM
CN(C)CCCn1c2c3ccccc3ccc2c2oc(=O)c3ccccc3c21	17.8 µM	–
C/C(=N/NC(=S)N(Cc1ccccn1)Cc1ccccn1)c1cnccn1	11.4 µM	–
Cn1c2ccc([N+](=O)[O-])cc2c(=O)c2c(O)cc(O)cc21	> 100 µM	–
CCO[C@H]1C[C@@H](c2ccccc2)[C@]2(C)C[C@H](C(=O)OC)ON2O1	> 100 µM	–
O=Cc1[nH]c2ccccc2c1Br	> 100 µM	–
O=C1CNc2cc(N3CCN(c4cccc(C(F)(F)F)c4)CC3)ccc2N1	> 100 µM	–
C=C1CC(CNc2cc(Cl)nc(N)n2)C1	> 100 µM	–
COc1cc(/C=C/C(=O)O)ccc1O	> 100 µM	–
COc1ccc(/C=N/n2c(C)n[nH]c2=O)cc1	> 100 µM	–
O=[N+]([O-])c1cccc2nc3ccccc3c(NCCNCCO)c12	0.146 µM	–
C=C(CN1CCN(c2ccccc2F)CC1)c1ccc(C(=O)Nc2ccccc2N)cc1	> 100 µM	5 µM
Cc1ccc(NS(=O)(=O)c2cc(C)ccc2C)cc1	> 100 µM	21.9 µM

Compound	TGI	GI50
O=C(NCCCCNCCCNC(=O)C(F)(F)F)C(F)(F)F	> 100 µM	–
CCCCC(=O)[O-].N.N.N.N.N.[Co+3].[O-][Cl+3]([O-])([O-])[O-]	> 100 µM	> 100 µM
N#CC1(c2nc3ccccc3o2)C(=O)C(=O)N(c2ccc(Cl)c(Cl)c2)C(=O)C1=O	> 100 µM	–
CSc1nc(-c2cc3c(c(SC)n2)CCC3)cc2c1CCC2	> 100 µM	–
Cc1ccc(C2=Nc3ccccc3NC(=O)C2)cc1	> 100 µM	–
CC1(C)SC2C(NC(=O)Cc3ccccc3)C(=O)N2C1C(=O)O (stereo not given)	> 100 µM	–
CCN(CC)C(=S)N/N=C(\C)c1ccccc1O	> 100 µM	–
FC(F)(F)C1(C(F)(F)F)OC(Cl)(Cl)C(Cl)(Cl)O1	> 10 µM	–
Cc1ccc(C(=O)N/N=C/c2cccc(Oc3ccccc3)c2)cn1	> 100 µM	> 62.2 µM
Cc1c(C(=O)CC(=O)C(=O)Nc2cccc(C(F)(F)F)c2)[n+](=O)c2ccccc2n1[O-]	8.11 µM	–
Cc1c(CN2CCC(Nc3ncnc4sc(CC(F)(F)F)cc34)CC2)ccc2c1cc(C#N)n2Cc1cn[nH]c1	20.7 µM and > 38.8 µM	5.96 µM and 12.2 µM
CO/N=C1/NC(=O)/C(=C/c2ccc3ncccc3c2)S1	> 22.5 µM	7.07 µM
COC(=O)[C@H]1ON2O[C@@H](O[C@H]3CCCC[C@@H]3C(C)(C)c3ccccc3)C[C@@H]3CC[C@H]1[C@@]32C	> 100 µM	–
O=C(O)c1cc2c(cc1S(=O)(=O)O)C1C(C3C2C2(Cl)C(Cl)=C(Cl)C3(Cl)C2(Cl)Cl)C2(Cl)C(Cl)=C(Cl)C1(Cl)C2(Cl)Cl (stereo not given)	73.9 µM	–
Cc1ccc(NC2=C(Sc3ccc(Cl)cc3)C(=O)N(Cc3ccccc3)C2=O)cc1Cl	48.2 µM	14 µM
O=C(CNC(=O)c1cccc2ccccc12)Nc1ccccc1Oc1ccccc1	> 10 µM	0.632 µM
COc1ccc(C(=O)c2cc(OC)c(OC)c(OC)c2)cc1O	> 100 µM	0.0622 µM
C=CCN1C(=O)/C(=C/c2cccs2)N=C1SC1OC(COC(=O)c2ccccc2)C(OC(=O)c2ccccc2)C1OC(=O)c1ccccc1 (stereo not given)	> 100 µM	–
Cc1nn2c(/C=C3/C(=O)Nc4ccccc43)c(-c3ccc(Cl)cc3)nc2s1	48.1 µM	12.6 µM
Cc1ccnc2c1c(=O)c1ccccc1n2C	> 100 µM	–
Cc1cc(S(N)(=O)=O)c(S/C(=N\Nc2ccc([N+](=O)[O-])cc2)c2ccc(Cl)cc2)cc1Cl	4.34 µM	–
CCOC(=O)[C@@H](C)C[C@H](Cc1ccccc1)NC(=O)c1csc([C@@H](C[C@H](C(C)C)N(C)C(=O)[C@H](CCC(C)C)NC(=O)[C@H]2CCCCN2C)OC(C)=O)n1	11.4 µM	0.0124 µM
C#CCSc1cnc2ccccc2c1Sc1c[nH]c2ccccc2c1=O	> 100 µM	–
O=c1[nH]nc2c3c(cccc13)NC(CN1Cc3ccccc3C1)=N2	> 100 µM	55.3 µM
